First the molecules themselves.
B1: chr3:41225653:41225883:+|CDS|ENSG00000168036|unk|total|mutant (ssRNA)
RNA: GGGAGUUCUACAGUCCGACGAUCCAUUACAACUCUCCACAACCUUUUAUUACAUCAAGAAGGAGCUAAAAUGGCAGUGCGUUCCGCUGGUGGGCUGCAGAAAAUGGUUGCCUUGCUCAACAAAACAAAUGUUAAAUUCUUGGCCAACAGAGGAUUGAGCAUCA
B2: chr2:112659350:112659462:+|CDS|ENSG00000144136|unk|FALSE|unique (ssRNA)
RNA: GGGAGUUCUACAGUCCGACGAUCCUUGCCAAGGUGGGAGAUUGCAUGGGAGACUCCGGUGACAAACCCUUAAGGCGCAAUAAUAGCUAUACUUCCUAUACCAUGGCAAUAUGUGGCAUGCCUCUGGAUUCAUUCCGUGCCAAACAACAGAGGAUUGAGCAUCA
B3: chr8:28970260:28970371:+|CDS|ENSG00000147421|unk|FALSE|unique (ssRNA)
RNA: GGGAGUUCUACAGUCCGACGAUCUCUUCCUCUACAGCUACAGCUUCCACACAGACGCAGCAUUCGGGAAUGUCCCCGUCACCUAGCAACAGUUAUGAUACUUCCCCACAGCCUUGCACUACCAAUCAAAAUGGGAGGGAGAAUCAACAGAGGAUUGAGCAUCA
B4: chr8:42175261:42175472:-|3pUTR|ENSG00000104368|msi1|total|mutant (ssRNA)
RNA: GGGAGUUCUACAGUCCGACGAUCGUAUUCCUUUUGUGUACAGUGUGUAAAGUGUAAAUCCUUUUUCUUUAUAAACUUCCGAGCCGCAUGAGAGAAUUGUAUCAUUUGAACAACCCGGCUUCAGCAUAUUUACCGCAAUCCAUGCAACAGAGGAUUGAGCAUCA
B5: chr2:33399154:33399255:+|3pUTR|ENSG00000049323|msi1|FALSE|unique (ssRNA)
RNA: GGGAGUUCUACAGUCCGACGAUCAAGUACUUUAUAUUUUCAGUGUUUUGUCUGAUUUUAAUGUCCGUUCUUAGCCAAGCUGCUAGCAGGUGUUAAUUGGAUCCCUUUCCUUCACUGAAAUGGAAGAGUUUAUAAGCUUACGUUCAACAGAGGAUUGAGCAUCA
B6: chr5:180576808:180576909:+|3pUTR|ENSG00000113300|unk|FALSE|unique (ssRNA)
RNA: GGGAGUUCUACAGUCCGACGAUCUAUUUUCCGUGUCCUAAAUAAUUUUCAAUAAUCUAUAAUCCCUAAAAUGCAAUAAAAACUAGUAUGUUUUCACGGUGUAUAUUUUUUUUCAAAAAUUCUGUAACAAAUAUAUUUAAUGUGCAACAGAGGAUUGAGCAUCA
B7: chrX:85861749:85861850:-|3pUTR|ENSG00000188419|msi1|FALSE|unique (ssRNA)
RNA: GGGAGUUCUACAGUCCGACGAUCCUAAUUUAAAAUUUCAGAAAAUGCUAUUAAAGAAUUUUGAUUCAAGUAUUUAAACUGUUUAGUUAUGCAUGCUUCUUAUUAACCGAAAAUGAUAAUACCAUUUAGUUUAGUGAUCAGUAUCAACAGAGGAUUGAGCAUCA
B8: ENSG00000181104:stop:overlap|stop_codon|ENSG00000181104|stop_codon|NA|stop_codon (ssRNA)
RNA: GGGAGUUCUACAGUCCGACGAUCGUAAAAUGGAUACCUGCUCUAGUAACCUGAAUAACAGCAUAUACAAAAAGCUGUUAACUUAGGAAAAGGGACUGCUGGGAGGUUAAAAAGAAAAGUUUAUAAAAGUGAAUAACCUGAGGACAACAGAGGAUUGAGCAUCA
B9: ENSG00000114062:stop:overlap|stop_codon|ENSG00000114062|stop_codon|NA|stop_codon (ssRNA)
RNA: GGGAGUUCUACAGUCCGACGAUCUGGGAGGACUAGGAAAAUUAAAGAUGAUUAUAGCCAAAAAUGGCCCAGACACAGAAAGGUAGGUAAUUAUUAACUUGUGACUGUAUACCUACCGAAAACCUUGCAUUCCUCGUCACAUACCAACAGAGGAUUGAGCAUCA
B10: chr21:25606471:25606579:-|CDS|ENSG00000154719|unk|FALSE|unique (ssRNA)
RNA: GGGAGUUCUACAGUCCGACGAUCUGAUCUCUUUAAUAAAGAGAAAGCCAGGCAGUUAUCAUUAACUCCCCGAACUGAGAAGAUAGAAGUUAAGCAUGUUGGGAAAACUGACCCCGGUACUGUCUUCGUGAUGAAUAAAAACAUCAACAGAGGAUUGAGCAUCA
B11: ENSG00000100034:stop:overlap|stop_codon|ENSG00000100034|stop_codon|NA|stop_codon (ssRNA)
RNA: GGGAGUUCUACAGUCCGACGAUCGGAGGCAGGACUUGCCCUCCAGCCUUCCAGAACCUGAGACCCAGGCUCCACCAAGAAGCUAGGUGGUUUCCAGGCCCCUGCCCUCCCCUUCCUCCCAUCCUUGUCCUUCUCUCCCUCAGACAACAGAGGAUUGAGCAUCA
B12: chr1:9729132:9729211:-|3pUTR|ENSG00000171603|msi1_unk|FALSE|overlapping (ssRNA)
RNA: GGGAGUUCUACAGUCCGACGAUCUAGUUCUGAGGACACUGGUGGCUGUGCUAUGUGUGGCCAUCCUCCAUGUCCCGUCCCUGUAGCUGCUCUGUUUAGACAGCGGACAGACGCUCACGCCCAGGGGAUGUCCUCACGCUGUCGCAACAGAGGAUUGAGCAUCA
B13: chr11:111494814:111495134:-|three_prime_utr|ENSG00000137707|control|control|control (ssRNA)
RNA: GGGAGUUCUACAGUCCGACGAUCUCUCUAAAAUAAAAAUGAAUUUAAGGUUGAGAGGCCCAUGAAACAAAAAAUGACCAUAUUAGGGACUAGGGUACACAAUGGUAAAUCCUCUCAUACAGAUCAUCACUGUUCUUAGCUGUACAACAGAGGAUUGAGCAUCA
B14: chr3:194587672:194588620:-|three_prime_utr|ENSG00000145014|control|control|control (ssRNA)
RNA: GGGAGUUCUACAGUCCGACGAUCAAGCUGCCCUGGCAAGUGAGGAACCAGGAGCCGUCACUGAGUGUGGCUGGGCUACAUCAUAGCUCAUCACGGAGCUACGACUUUGGGUACUGCGGACAGACCUGGAUAGGCCCAGCAUUCCAACAGAGGAUUGAGCAUCA
B15: chr1:225419324:225419425:-|CDS|ENSG00000143815|msi1|FALSE|unique (ssRNA)
RNA: GGGAGUUCUACAGUCCGACGAUCUUACAUAGCAACACAGUAUAGCCUUCGUCCAAGAAGAGAAGAAGUCAAAUUAAAAGAAAUAGAUUCUAAGGAAGAAAAAUACGUUGCAAAAGAACUGGCAGUGAGAACCUUUGAAGUGACCAACAGAGGAUUGAGCAUCA
B16: chr10:99876058:99876159:-|3pUTR|ENSG00000107554|msi1|FALSE|bound_elsewhere (ssRNA)
RNA: GGGAGUUCUACAGUCCGACGAUCUUGAGCCUAAUGGAAGACUGGAUGUCUUUCUUCUUCAUCCAAGCACCCUAAUGACUGUUUAGUUACAUCCAUAGAUGCAGACAACAUAACACCUGUGACUUACUUGAAUUGGGAUAAGCCCAACAGAGGAUUGAGCAUCA
B17: chr15:43184406:43184511:+|CDS|ENSG00000137842|unk|FALSE|unique (ssRNA)
RNA: GGGAGUUCUACAGUCCGACGAUCACUGCUGUACAUCUGGCAGGUUUAUUCCUGCUACUUUCUUUAUGCAACAUACGGCACCCUAGCUUUUUUAUUCUCCCCUUUGCGGACCUGGUUGACACUGCUGACACCUGUUCUCAUUCGCAACAGAGGAUUGAGCAUCA
B18: chr12:51809400:51809501:+|3pUTR|ENSG00000196876|unk|total|mutant (ssRNA)
RNA: GGGAGUUCUACAGUCCGACGAUCCUGCCUUGCAGCCGAAGCACUUUGAAGGUAAUUUCACAGUCCACCAGACCCGUUUUGCACCGAACAAACCACAGUAAGUCGGCAAGCAGAGCUUUCUAUCUUGUUGGACCACCCGAAACUCAACAGAGGAUUGAGCAUCA
B19: chrX:27979534:27981334:-|CDS|ENSG00000226372|control|control|control (ssRNA)
RNA: GGGAGUUCUACAGUCCGACGAUCAGAUAUAGUAAACUGUCUUGAACCCCACCCUUACCUACCUGUGUUGGCGACCAGUGGCCUAGAUCAGCAUGUCAGGAUCUGGACACCCACAGCUAAAACUGCCACUGAGCUUACUGGGUUCAACAGAGGAUUGAGCAUCA
B20: chr5:40568104:40569403:-|three_prime_utr|ENSG00000113638|control|control|control (ssRNA)
RNA: GGGAGUUCUACAGUCCGACGAUCGCGUGAGACACCAUGCUCAGUCCUUAACAUCUUUCAAGGGAUGUGAUUCUUUGUGGCAGUAGAAAGGUGCUUUUGAAUUCCUGGAUCCUCUUUUAAACACUAUCAAAUUAGAAUAUACUUCAACAGAGGAUUGAGCAUCA
B21: chr22:46255662:46256560:-|three_prime_utr|ENSG00000130943|control|control|control (ssRNA)
RNA: GGGAGUUCUACAGUCCGACGAUCGUUUCAUGAGUCACAAGCAAGCGUUCCCCCAACUGCUGAGUCUGUGGGAUUAAGGGGAUUAGGGAGUGUCAGUGGCCUAGUCAUGCUUUCUACUCAUGUCCUUCACAAGGCACAUCCCCUCAACAGAGGAUUGAGCAUCA
B22: chrX:155122998:155123099:+|3pUTR|ENSG00000185515|unk|FALSE|unique (ssRNA)
RNA: GGGAGUUCUACAGUCCGACGAUCCUACAUACACACAAAUGAAUGCAUGUAAAAUCUGGUGAUACUGAAUAAAGUCUGUGGUCUAGAUAGCAGUAUAAUAUUAUUGUCAAUGUCUUGGAUGUGAAGUUGUGCUAUAGUUACAAACAACAGAGGAUUGAGCAUCA

The other results are listed elsewhere or left out.

The target in this test is MSI1 full-length (mouse, UniProt Q61474 1-362). As to the kind of experiment: nsRBNS (natural sequence RNA bind-n-seq); RBNS binding buffer (assumed for nsRBNS): 25 mM Tris pH 7.5, 150 mM KCl, 3 mM MgCl2, 0.01% Triton X-100, 500 ug/ml BSA, 20 U/ml SUPERase-In, 4 C; UNK is unkempt and MSI1 is Musashi-1; names of the RNAs are library labels; protein concentration not given here; high values mean tight binding.
Chain of UniProt Q61474 (Q61474 whole entry): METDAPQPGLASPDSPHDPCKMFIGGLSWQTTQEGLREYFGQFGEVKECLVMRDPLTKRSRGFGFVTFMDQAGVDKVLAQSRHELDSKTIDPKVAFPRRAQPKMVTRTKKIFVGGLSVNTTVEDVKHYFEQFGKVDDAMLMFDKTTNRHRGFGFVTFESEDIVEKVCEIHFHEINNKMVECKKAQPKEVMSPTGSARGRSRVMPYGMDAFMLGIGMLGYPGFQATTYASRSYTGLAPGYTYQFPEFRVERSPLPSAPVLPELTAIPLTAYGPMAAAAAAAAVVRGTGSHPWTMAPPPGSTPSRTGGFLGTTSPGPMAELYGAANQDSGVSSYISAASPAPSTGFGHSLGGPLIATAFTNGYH
In turn, B1 came in with a binding signal of 0.422 enrichment R.

B2 displayed a binding signal of 0.737 enrichment R.

As for B3, the binding signal worked out at 0.658 enrichment R.

The molecule B4 gave a binding signal of 0.424 enrichment R.

As to B5, the binding signal is 0.417 enrichment R.

B6 had a binding signal of 15.7 enrichment R.

In turn, B7 returned a binding signal of 54.6 enrichment R.

Regarding B8, the binding signal worked out at 0.328 enrichment R.

B9 returned a binding signal of 0.428 enrichment R.

In the case of B10, the binding signal came out at 0.308 enrichment R.

Molecule B11 yielded a binding signal of 1.62 enrichment R.

With B12, the binding signal was 0.532 enrichment R.

As to B13, the binding signal was 1.78 enrichment R.

B14 came in with a binding signal of 0.493 enrichment R.

B15 returned a binding signal of 2.94 enrichment R.

Molecule B16 returned a binding signal of 0.725 enrichment R.

The molecule B17 returned a binding signal of 0.436 enrichment R.

As for B18, the binding signal turned out to be 0.502 enrichment R.

In the case of B19, the binding signal was 1.31 enrichment R.

Molecule B20 registered a binding signal of 1.73 enrichment R.

Turning to B21, the binding signal was 0.407 enrichment R.

The molecule B22 gave a binding signal of 2.09 enrichment R.

Values taken from article PMC12136788.
